ChEMBL document CHEMBL4673226, “Development of 5-Aminopyrazole-4-carboxamide-based Bumped-Kinase Inhibitors for Cryptosporidiosis Therapy” (J Med Chem, 2019)
In brackets after ≈: the same amount, converted by molar mass.

What was measured:
[1] = Clearance in mouse at 25 mg/kg, po; type: ADME, organism-based; settings: in vivo
[2] = Half life in mouse at 25 mg/kg, po; settings: in vivo
[3] = AUC in mouse at 25 mg/kg, po; type: ADME, organism-based; parameters: dose 25 mg/kg; settings: in vivo
[4] = Solubility in pH 2.0 solution; settings: buffer
[5] = Solubility in pH 6.5 solution; settings: buffer
[6] = Protein binding in mouse plasma by dialysis method
in vivo = settings: mouse, po, 25 mg/kg
[7] = Clearance in mouse at 10 mg/kg, po; type: ADME, organism-based; settings: in vivo
[8] = AUC in mouse at 10 mg/kg, po; type: ADME, organism-based; parameters: dose 10 mg/kg; settings: in vivo

SMILES	CL/F [1]	half-life [2]	AUC [3]	solubility [4]	solubility [5]	PPB [6]	Cmax (in vivo)	CL/F [7]	AUC [8]
CC(C)(CO)Cn1nc(-c2ccc3nc(OC4CC4)ccc3c2)c(C(N)=O)c1N	0.1 mL/min	196 h	11910 µmol·min/L	> 100 µM	100 µM (≈ 39.5 µg/mL)	67%	1900 nM	–	–
CC(C)(CO)Cn1nc(-c2ccc3cc(OC4CC4)ccc3c2)c(C(N)=O)c1N	–	–	–	93 µM (≈ 36.7 µg/mL)	98 µM (≈ 38.7 µg/mL)	–	–	2.2 mL/min	247.1 µmol·min/L
